Experimental data: PubChem BioAssay AID485297 (National Center for Advancing Translational Sciences (NCATS), 2010)
In all, about 320,000 compounds went through this assay and about 9,100 (2.8%) were called active. Inconclusive results, whose numbers are uncertain, are shown with a selection of clear calls. Calls come from the whole dose curve; as a rule, active = well fitted activation curve with a large enough effect; inconclusive = small, poorly fitted or top-dose-only effect; inactive = no such curve, though single readings can be large or run the other way. Where the call is inconclusive, the potency comes from a doubtful curve fit.

assay: qHTS Assay for Rab9 Promoter Activators; conditions: Huh7 Rab9 promoter-luciferase reporter, luminescence, 24 h; series mostly up to 9.22 µM; activation, negative = inhibition: at the top concentration; note: nearly all actives have a fitted effect of over 60% in size; for activation, negative = inhibition: % of control where 0% means no effect
In short: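 Cells were plated at 1500 per well in reduced-serum medium with 10% FBS and left 2 h. Compound in DMSO was then added for 24 h at 37 °C. Reporter signal was read by luminescence after 10 min with luciferase detection reagent.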
Potency is the fitted concentration of half-maximal effect; tags give direction and shape of the fitted curve.

Potency, inconclusive:
Cc1ccc(OCC(=O)Nc2sc3c(c2C#N)CCC3)cc1C 5.62 µM [activator, single point]
Cc1ccc2nc(NC(=O)COC(=O)c3ccccn3)sc2c1 3.16 µM [activator, partial curve]
Cc1ccc2nc(C)c(C(=O)N/N=C/c3ccc(C(=O)O)cc3)cc2c1 5.62 µM [activator, single point]
CCCc1c(C)c2ccccc2[nH]c1=O 1.12 µM [activator, single point]
O=c1cc(-c2ccccc2)nc2cc(-c3ccco3)[nH]n12 3.55 µM [activator, single point]
CCc1ccccc1OCC(=O)Nc1ccc2c(c1)OCCO2 3.98 µM [activator, single point]
Oc1c(Cl)cc(Cl)cc1C1=NNC(c2ccc(Cl)cc2)C1 (configuration not stated) 2.82 µM [activator, partial curve]
COc1ccc2nc(NC(=O)C34CC5CC(CC(NC(C)=O)(C5)C3)C4)sc2c1 2.24 µM [activator, partial curve]
N/C(=N\c1nc2ccccc2o1)NC(=O)c1ccc(F)cc1 6.31 µM [activator, single point]
COC(=O)c1ccc(N2CCC(C)CC2)c(N)c1 3.55 µM [activator, partial curve]
O=C(Nc1ccc(Oc2ccccc2)cc1)C1CCCO1 (configuration not stated) 3.16 µM [activator, partial curve]
Cc1ccc(CNC(=O)C2CCC(=O)N(CCc3ccc(Cl)cc3)C2)cc1 (configuration not stated) 5.01 µM [activator, partial curve]
O=C(Nc1cccc(O)c1)c1ccc(Br)cc1 3.98 µM [activator, single point]
CCOC(=O)c1ccc(NC(=O)c2n[nH]c(=O)c3ccccc23)cc1 1.58 µM [activator, partial curve]
COc1ccc(C2=NCC(CSc3nnc(-c4ccc5c(c4)OCO5)o3)S2)cc1 (configuration not stated) 3.16 µM [activator, partial curve]
CCOC(=O)CC(=O)CSc1nc2c(cc1C#N)CCCCC2 5.01 µM [activator, partial curve]
COc1ccc(N/C=C2/CCCCC2=O)cc1 0.708 µM [activator, partial curve]
Nc1ccc(Oc2cc(N)cc(Oc3ccccc3)c2)cc1 4.47 µM [activator, single point]
Nc1cc2nc3ccccc3oc-2cc1=O 4.47 µM [activator, partial curve]
Cc1ccnc(NC(=O)CCc2c[nH]c3ccccc23)c1 2.51 µM [activator, partial curve]
Cc1ccc(OCC(=O)NCc2ccccn2)c(Br)c1 3.16 µM [activator, partial curve]
O=C(Nc1ccc2c(c1)OCO2)c1cc(-c2ccc(O)cc2)on1 2.82 µM [activator, partial curve]
Cc1ccc2oc(C(=O)N(Cc3ccncc3)CC3CCCO3)c(C)c2c1 (configuration not stated) 2.24 µM [activator, partial curve]
Cc1nnc(SCC(=O)c2cc(C)n(-c3ccc4c(c3)OCO4)c2C)s1 2.24 µM [activator, partial curve]
O=C(Nc1ccc(OCc2ccccc2)cc1)c1ccccc1 1 µM [activator, full curve]
CCOC(=O)c1c(C)[nH]c(C2=NNC(=NC3CC3)SC2)c1C 0.0891 µM [activator, full curve]
COc1ccccc1C(=O)Nc1ccc(S(=O)(=O)NC2=NCCCCC2)cc1 3.55 µM [activator, single point]
O=C(NCc1ccc(Cl)cc1)Nc1ccc(F)cc1 6.31 µM [activator, partial curve, poor fit]
CN(C(=O)c1cccnc1)c1nc(-c2ccccc2)cs1 6.31 µM [activator, single point]
Cc1ccc(S(=O)(=O)NNC(=O)CCCCC(=O)NNS(=O)(=O)c2ccc(C)cc2)cc1 4.47 µM [activator, single point]
CN1CCCN(S(=O)(=O)c2ccc(Cl)c(Cl)c2)CC1 5.62 µM [activator, single point]
O=C(Nc1c(C(=O)Nc2ccc3c(c2)OCCO3)cnn1-c1ccccc1Cl)c1ccco1 2.51 µM [activator, partial curve]
N#CCC(=O)Nc1ccc(C(=O)OCC(=O)c2ccc3c(c2)OCCO3)cc1 1.58 µM [activator, partial curve]
CC1CC(c2ccccc2)=Nc2ccccc2N1 (configuration not stated) 6.31 µM [activator, single point]
c1ccc(-c2csc(N3CCSCC3)n2)cc1 2.24 µM [activator, partial curve]
Cc1cc(CN(C)C(=O)c2cc(COc3ccc(F)cc3Cl)on2)n[nH]1 5.62 µM [activator, single point]
O=C(CCn1cnnn1)Nc1ccc(F)cc1 4.47 µM [activator, partial curve]
COc1ccccc1C(=O)Nc1ccc(N2CCN(S(C)(=O)=O)CC2)cc1 2.51 µM [activator, partial curve]
COc1cccc(-c2nc(-c3ccccc3)no2)c1 3.55 µM [activator, single point]
O=C(c1ccco1)N1CCN(C(=O)c2ccc(COc3ccc4c(c3)CCC4)o2)CC1 2.24 µM [activator, partial curve]
COc1cc2ccccc2cc1C(=O)NC1CCCCC1 2 µM [activator, partial curve, poor fit]
Cc1cccc(N=Nc2cn[nH]c2-c2ccco2)c1 4.47 µM [activator, partial curve, poor fit]
N/C(=N\OC(=O)c1csnn1)c1ccc(C(F)(F)F)cc1 5.62 µM [activator, single point]

Potency, active:
O=S(=O)(c1cc(F)ccc1F)N1CCC2(CC1)OCCO2 3.98 µM
O=c1c2ccccc2nnn1COc1ccc(Cl)cc1Br 3.16 µM
O=C(Nc1nc2ccc(Cl)cc2s1)c1ccco1 1.26 µM
Cc1nonc1C1CCCN1C(=O)c1cc(COc2ccc(F)cc2F)on1 (configuration not stated) 2.24 µM
COc1ccc2c(c1OC)C(=O)OC2Nc1nc(-c2cc3cc(Br)ccc3oc2=O)cs1 (configuration not stated) 1.41 µM
O=C(NC1=NCCS1)c1ccc(Cl)cc1 2 µM
CCOC(=O)c1cc(-c2ccc(N)cc2)sc1N 2.24 µM
C1=C(c2ccc(-c3ccccc3)cc2)Nc2ncnn2C1c1ccco1 (configuration not stated) 3.16 µM
COc1ccc(C(=O)Nc2nnc(-c3ccco3)s2)cc1 0.316 µM
O=C(/C=C/c1ccccc1Cl)Nc1cccnc1 1.78 µM
O=C(NC1=NCCS1)c1ccc(Br)s1 3.55 µM
Cc1ccc2nc(-c3ccc(SCC(=O)Nc4nnc(C)s4)nc3)[nH]c2c1 2.82 µM

activation, negative = inhibition, inactive:
CCN(CC(=O)Nc1ccccc1SC)Cc1nc2ccccc2c(=O)[nH]1 -17%
CC(=O)Nc1ccc(OS(=O)(=O)c2c(C)cc(C)cc2C)cc1 -0.0234%
COc1ccccc1C(=O)Nc1nnc(CCc2ccccc2)s1 -16.5%
CCOC(=O)c1c(C)n(C)c2ccc(OC)c([N+](=O)[O-])c12 0.424%
COC(=O)c1[nH]c2ccc(C)cc2c1NC(=O)CN1CCN(c2ccccc2)CC1 -6.93%
COc1cc(/C=N/NC(=O)CCn2nnc3ccccc32)ccc1O 2.37%
CCN(C(=O)COC(=O)C1CCN(S(=O)(=O)c2ccc3c(c2)OCCO3)CC1)C1CCCCC1 -3.66%
COc1ccc(OCc2cc(C(=O)N(C)Cc3nccn3C)no2)c2ccccc12 -0.0865%
CCOC(=O)c1sc(NC(=O)c2ccc(OC)cc2)nc1C 0.827%
O=C(CN1C(=O)S/C(=C\c2cccc(Cl)c2)C1=O)NC1C=CS(=O)(=O)C1 (configuration not stated) 8.63%
N#C/C(=C\C=C\c1ccccc1)C(=O)Nc1ccccc1 9.76%
Cc1cccc(C(=O)Nc2cccc(Br)c2)c1[N+](=O)[O-] 7.68%
CCc1nnc(NS(=O)(=O)c2ccc(N/C=C\C(=O)c3cccc(OC)c3)cc2)s1 -7.29%
O=C(COc1ccccc1N1C(=O)c2ccccc2C1=O)c1ccc(Cl)cc1 15.5%
c1ccc(CCNc2cnccn2)cc1 1.66%
Cc1cccc(-c2nc(C#N)c(N3CCCCCC3)o2)c1 17.6%
CCCC[C@]12Cc3cc(C#N)ccc3C(O1)c1c(c3ccccc3oc1=O)O2 -4.45% [at 1.84 µM]
COc1ccc(-c2csc(N3CCN(S(=O)(=O)c4ccc5c(c4)NC(=O)CO5)CC3)n2)cc1 -13.2%
O=C(O)C1C2CCC(C2)C1C(=O)Nc1nc2ccccc2s1 (configuration not stated) -0.283%
CC(=O)Nc1ccc(S(=O)(=O)NCCCN2CCOCC2)cc1 -0.671%
O=C(O)CCCC(=O)Nc1cccc(C(=O)Nc2ccccc2C(=O)O)c1 -6.81%
NC(=O)C1CC(=O)N(c2ccc(OCc3c(Cl)cccc3Cl)cc2)C1 (configuration not stated) -18%
